Experimental data reported in PubChem BioAssay AID588342 (National Center for Advancing Translational Sciences (NCATS), 2011).
The campaign covered roughly 360,000 compounds. About 25,000 (6.9%) were called active. The shares of active, inactive and inconclusive entries below differ from those in the screen. The call rests on the fitted dose curve; in most records, active means well fitted inhibition curve with a large enough effect; inconclusive means small, poorly fitted or top-dose-only effect; inactive means flat fitted curve, though single readings scatter. Potencies beside an inconclusive call are fits to weak or partial responses and may not hold up.

molecular target: Luciferin 4-monooxygenase (Photinus pyralis) (UniProt P08659); test: qHTS profiling assay for firefly luciferase inhibitor/activator using purifed enzyme and Km concentrations of substrates (counterscreen for miR-21 project); details: purified FLuc, luminescence inhibition; series mostly up to 57.5 µM; further: nearly all actives have a fitted effect of over 55% in size
UniProt P08659, sequence (P08659 whole entry, looked up): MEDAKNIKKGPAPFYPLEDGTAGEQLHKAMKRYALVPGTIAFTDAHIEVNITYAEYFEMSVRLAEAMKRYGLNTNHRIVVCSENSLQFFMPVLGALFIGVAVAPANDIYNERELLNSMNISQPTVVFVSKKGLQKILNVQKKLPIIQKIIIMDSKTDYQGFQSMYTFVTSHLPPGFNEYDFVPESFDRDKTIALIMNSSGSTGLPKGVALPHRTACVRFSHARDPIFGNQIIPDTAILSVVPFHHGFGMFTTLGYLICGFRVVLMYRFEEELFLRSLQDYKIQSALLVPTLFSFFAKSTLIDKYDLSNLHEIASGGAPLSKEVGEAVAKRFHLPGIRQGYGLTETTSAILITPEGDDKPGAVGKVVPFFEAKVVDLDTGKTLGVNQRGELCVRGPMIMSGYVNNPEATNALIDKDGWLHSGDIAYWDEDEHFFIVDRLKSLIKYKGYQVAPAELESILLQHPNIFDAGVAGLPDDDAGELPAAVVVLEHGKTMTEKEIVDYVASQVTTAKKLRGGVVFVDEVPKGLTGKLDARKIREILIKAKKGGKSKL
Procedure, shortened: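 Purified P. pyralis luciferase, 10 nM final, with Km-level 10 uM D-luciferin and 10 uM ATP in 50 mM Tris acetate pH 7.5, 10 mM Mg acetate, 0.01% Tween-20, 0.05% BSA; 6-point qHTS titration about 60 µM downward; luminescence read.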
Potency means the concentration at half of the fitted maximal effect; tags describe the fitted curve by direction and shape.

Structure (SMILES)	Potency
CCSc1nsc(NC(=O)Nc2cccc(C(C)=O)c2)n1	active: 19 µM
COc1ccccc1CNc1ccc(-c2nc(-c3ccccn3)no2)cc1[N+](=O)[O-]	inconclusive: 3.01 µM [inhibitor, partial curve, poor fit]
Cn1c(=O)c2c(nc(Sc3ncnn3CC(=O)NC3CCCCC3)n2C)n(C)c1=O	inactive
O=C(Cc1ccc(NC(=O)N2CCCCc3ccccc32)cc1)NCc1ccccc1Br	inconclusive: 15.1 µM [inhibitor, partial curve, poor fit]
Cn1nc(-c2ccccc2F)c2cc(C(=O)NCc3ccc(Cl)cc3)sc21	inactive
CC(=O)NC(c1ccccc1)c1cc([N+](=O)[O-])c2cccnc2c1O (stereo not given)	inconclusive: 37.9 µM [inhibitor, partial curve, poor fit]
O=C(N/C=C/c1ccco1)NCc1ccccc1	inactive
Cc1ccc(C)c(NC(=S)Nc2cccc3cnccc23)c1	inconclusive: 12 µM [inhibitor, partial curve, poor fit]
O=C(c1cccc(S(=O)(=O)NCc2ccc3c(c2)OCO3)c1)N1CCCC1	inactive
COc1ccc(C(=O)/C=C/c2ccccc2F)c(OC(=O)c2ccc([N+](=O)[O-])cc2)c1	inconclusive: 3.79 µM [inhibitor, full curve]
CC(=O)N(C)c1ccc(NC(=O)Nc2ccc(C)c(C)c2)cc1	inconclusive: 23.9 µM [inhibitor, single point]
C/C(=N/NC(=O)c1ccco1)c1ccc(Br)s1	inconclusive: 23.9 µM [inhibitor, single point]
CC1CCc2c(sc(NC(=O)Cn3nnc(-c4ccc(C(F)(F)F)cc4)n3)c2C#N)C1 (stereo not given)	inconclusive: 9.53 µM [inhibitor, partial curve, poor fit]
Clc1c(CSc2nc3ccccc3o2)nc2sccn12	active: 9.53 µM
COc1ccccc1NC(=O)Nc1nc2ccc(S(N)(=O)=O)cc2s1	inconclusive: 2.13 µM [inhibitor, full curve]
Cc1[nH]c2ccccc2c1/C=N/NC(=O)c1ccccc1	inconclusive: 16.9 µM [inhibitor, partial curve]
CC1Cc2ccccc2N1C(=O)COC(=O)c1c2c(nc3ccccc13)CCCCC2 (stereo not given)	inconclusive: 23.9 µM [inhibitor, partial curve, poor fit]
O=C(CN1C(=O)c2ccccc2C1=O)Nc1ccc(-c2nc3ccccc3o2)cc1	inactive
CCc1ccccc1NC(=S)N1N=CCC1c1ccccc1 (stereo not given)	inactive
CC(=O)Nc1nonc1-c1nc2ccccc2n1N(C(C)=O)C(C)=O	inconclusive: 26.9 µM [inhibitor, partial curve, poor fit]
CCN(CC)c1ccc(/C=N/OCC(=O)N2CCCc3ccccc32)cc1	inconclusive: 21.3 µM [inhibitor, single point]
O=C(N/N=C/c1cccc(O)c1)c1ccc2c(c1)OCCO2	active: 1.69 µM
Cc1ccc(S(=O)(=O)NC(=O)Nc2nc(-c3ccc(F)c(F)c3)cs2)cc1	inconclusive: 37.9 µM [inhibitor, partial curve, poor fit]
c1ccc(CC2CCN(Cc3nc(-c4ccccc4)no3)CC2)cc1	inconclusive: 37.9 µM [inhibitor, partial curve, poor fit]
COc1ccccc1C(=O)Nc1ccc(NC(=O)c2cccs2)cc1	inconclusive: 16.9 µM [inhibitor, partial curve]

Structure (SMILES)	Potency
COc1ccc(NC(=S)N(CCO)Cc2ccccc2)cc1	inconclusive: 26.9 µM [inhibitor, single point]
Cc1ccc(-n2ncc(Br)c(Br)c2=O)cc1	inconclusive: 23.9 µM [inhibitor, single point]
Cc1ccc(OCC(=O)NNC(=O)C(=O)N2CCCC2)c(C)c1	inactive
O=C(Nc1cccc(C(F)(F)F)c1)N1CCC(CN2CCCCCC2)CC1	inactive
O=C(CN1C(=O)c2ccccc2C1=O)Nc1cccc2cccnc12	inconclusive: 21.3 µM [inhibitor, partial curve, poor fit]
COc1ccc(OC)c(C2c3c(-c4ccc(Br)cc4)n[nH]c3C(=O)N2c2ccc(Cl)cc2)c1 (stereo not given)	inactive
CCOc1ccc(NC(=O)c2ccc3c(SCC(=O)O)c4c(nc3c2)CCC4)cc1	active: 23.9 µM
CC1=Nc2ccccc2/C1=C/c1sc(=N)n(-c2nccs2)c1O	inconclusive: 23.9 µM [inhibitor, partial curve, poor fit]
Cc1nc(N/N=C/c2ccc(O)cc2)c2cnn(-c3ccccc3)c2n1	inconclusive: 19 µM [inhibitor, partial curve]
O=C(O)/C=C/c1cn(-c2ccccc2)nc1-c1cccc([N+](=O)[O-])c1	inconclusive: 21.3 µM [inhibitor, partial curve, poor fit]
NC(=O)C[n+]1cccc(CNC(=O)c2ccc(OC(F)F)cc2)c1	inactive
CN1CCc2c(sc3c2C(=O)NC(c2ccccn2)N3)C1 (stereo not given)	inactive
O=C(OCc1ccc(F)cc1)c1cccnc1Cl	inactive
O=C(Nc1nc(-c2cccs2)cs1)c1ccco1	active: 8.49 µM
O=C(Nc1ccccn1)C(=O)Nc1ccccn1	active: 5.36 µM
O=C(COC(=O)CC1CCCC1)Nc1ccccc1[N+](=O)[O-]	inconclusive: 37.9 µM [inhibitor, single point]
Cn1c(N)c(C(=O)CCl)c(=O)n(Cc2ccccc2)c1=O	inactive
COc1ccc(Cl)cc1NC(=O)Cn1c(=O)n(Cc2nc(C)no2)c(=O)c2ccccc21	inactive
CCN(CC)S(=O)(=O)c1cccc(NC(=O)c2ccc(Br)cc2)c1	inconclusive: 23.9 µM [inhibitor, single point]
O=C(N/N=C/c1ccc2c(c1)OCO2)c1cc(-c2ccco2)nc2ccccc12	active: 0.849 µM
O=C(O)c1ccccc1NS(=O)(=O)c1ccc2c3c(cccc13)C(=O)N2	inconclusive: 21.3 µM [inhibitor, single point]
Cc1ccc(C(=O)NCC(=O)OCC(=O)N2CCCc3ccccc32)cc1	inconclusive: 21.3 µM [inhibitor, single point]
COc1ccccc1NC(=O)CCCC(=O)OCC(=O)c1ccc(F)cc1	inactive
C=CCNC(=O)c1onc(CSc2ccccc2F)c1C(=O)O	inconclusive: 23.9 µM [inhibitor, partial curve, poor fit]
COc1ccc(C(=O)N/N=C/c2ccc(OC(=O)c3cccc4ccccc34)c([N+](=O)[O-])c2)cc1	inconclusive: 21.3 µM [inhibitor, partial curve, poor fit]

Structure (SMILES)	Potency
Cc1ccc(C)c(NC(=O)Cn2nnc(-c3ccc(N4CCOCC4)cc3)n2)c1	inconclusive: 1.51 µM [inhibitor, partial curve, poor fit]
O=C(c1c(Cl)cccc1Cl)N1CCN(c2cccc3[nH]ccc23)CC1	inactive
O=C1C(Cl)=C(NS(=O)(=O)c2ccc([N+](=O)[O-])cc2)C(=O)c2ccccc21	active: 26.9 µM
CCn1nccc1C(=O)Nc1cc(Cl)cc(Cl)c1	inconclusive: 26.9 µM [inhibitor, single point]
O=C(CCCn1c(=O)oc2ccccc21)N1CCc2ccccc2C1	inconclusive: 37.9 µM [inhibitor, partial curve, poor fit]
CCOC(=O)c1sc2nc(C)n(CC(=O)Nc3cccc(Cl)c3)c(=O)c2c1C	inactive
O=C(COC(=O)c1ccccc1SCC(=O)N1CCCC1)Nc1ccccc1	inconclusive: 37.9 µM [inhibitor, single point]
Cc1ccc(NC(=S)N2CCOCC2)cc1	inconclusive: 23.9 µM [inhibitor, partial curve, poor fit]
CN(C)c1ccc(/C=N\NC(=O)c2ccc(Cn3cc(Cl)cn3)cc2)cc1	active: 12 µM
OCC#CCSc1nnc(-c2cccc3ccccc23)o1	inconclusive: 33.8 µM [inhibitor, single point]
Cc1nc(Cl)sc1C(=O)Nc1cccc(Cl)c1	inconclusive: 15.1 µM [inhibitor, partial curve]
COc1cc(/C=C(\C#N)C(=O)NCCc2ccccc2)cc(OC)c1O	inactive
COC(=O)c1ccc(N=Cc2c(C(F)(F)F)[nH][nH]c2=O)cc1	inactive
Cc1ccc(C(=O)Nc2ncc3c(Cl)cccc3n2)cc1	active: 0.269 µM
CC(Cn1nnc2ccccc21)C(=O)O (stereo not given)	inactive
COc1ccc(NC(=O)/C(=C\c2ccc3c(c2)OCO3)NC(C)=O)cc1	inactive
COCCCNC(=S)N/N=C/c1ccc2c(c1)OCO2	inconclusive: 37.9 µM [inhibitor, single point]
CCOc1cccc(-c2nnc3n2N=C(c2cc(OC)ccc2OC)CS3)c1	inactive
c1ccc(Oc2cc(-c3ccccc3)ncn2)cc1	active: 15.1 µM
NC(=O)CSc1nc(N)c2c3c(sc2n1)CCCCC3	active: 8.49 µM
COc1ccc(NC(=S)NC2CC3CCC2C3)c(OC)c1 (stereo not given)	inconclusive: 30.1 µM [inhibitor, partial curve, poor fit]
C/C(=N\NC(=O)c1ccccn1)c1ccc(Cl)cc1	active: 2.39 µM
CN(C)c1ccc(/C=N/OC(=O)Nc2ccccc2Cl)cc1	active: 23.9 µM
COc1cc(NC(=O)CCCOc2ccc(Cl)cc2Cl)c(C(=O)O)cc1OC	inconclusive: 37.9 µM [inhibitor, single point]
Cc1c(OCC(=O)N2CCC(C(=O)NCCCC(=O)O)CC2)ccc2c1oc(=O)c1ccccc12	inconclusive: 37.9 µM [inhibitor, partial curve, poor fit]
